These are yes or no findings as the source states them, for the method shown. In cells and extracts the contact can be indirect. Some binding calls cover weakened binding; strength is not graded here. Sequences can lack the tags named with a protein. Blank lines part the entries; values can stand above or below the binder they belong to.
How the values were obtained:
Test in all cases: split reporter; BiFC: N-terminal YN and YC fusions co-expressed in epidermal cells of N. benthamiana leaves, observed 3 days after infiltration by spinning-disk microscopy; CFP-N7 as transformation control
[1] = biological target: T1, CESA1, N-terminal YN or YC fusion (BiFC) (Arabidopsis thaliana) (UniProt O48946)
T1 sequence: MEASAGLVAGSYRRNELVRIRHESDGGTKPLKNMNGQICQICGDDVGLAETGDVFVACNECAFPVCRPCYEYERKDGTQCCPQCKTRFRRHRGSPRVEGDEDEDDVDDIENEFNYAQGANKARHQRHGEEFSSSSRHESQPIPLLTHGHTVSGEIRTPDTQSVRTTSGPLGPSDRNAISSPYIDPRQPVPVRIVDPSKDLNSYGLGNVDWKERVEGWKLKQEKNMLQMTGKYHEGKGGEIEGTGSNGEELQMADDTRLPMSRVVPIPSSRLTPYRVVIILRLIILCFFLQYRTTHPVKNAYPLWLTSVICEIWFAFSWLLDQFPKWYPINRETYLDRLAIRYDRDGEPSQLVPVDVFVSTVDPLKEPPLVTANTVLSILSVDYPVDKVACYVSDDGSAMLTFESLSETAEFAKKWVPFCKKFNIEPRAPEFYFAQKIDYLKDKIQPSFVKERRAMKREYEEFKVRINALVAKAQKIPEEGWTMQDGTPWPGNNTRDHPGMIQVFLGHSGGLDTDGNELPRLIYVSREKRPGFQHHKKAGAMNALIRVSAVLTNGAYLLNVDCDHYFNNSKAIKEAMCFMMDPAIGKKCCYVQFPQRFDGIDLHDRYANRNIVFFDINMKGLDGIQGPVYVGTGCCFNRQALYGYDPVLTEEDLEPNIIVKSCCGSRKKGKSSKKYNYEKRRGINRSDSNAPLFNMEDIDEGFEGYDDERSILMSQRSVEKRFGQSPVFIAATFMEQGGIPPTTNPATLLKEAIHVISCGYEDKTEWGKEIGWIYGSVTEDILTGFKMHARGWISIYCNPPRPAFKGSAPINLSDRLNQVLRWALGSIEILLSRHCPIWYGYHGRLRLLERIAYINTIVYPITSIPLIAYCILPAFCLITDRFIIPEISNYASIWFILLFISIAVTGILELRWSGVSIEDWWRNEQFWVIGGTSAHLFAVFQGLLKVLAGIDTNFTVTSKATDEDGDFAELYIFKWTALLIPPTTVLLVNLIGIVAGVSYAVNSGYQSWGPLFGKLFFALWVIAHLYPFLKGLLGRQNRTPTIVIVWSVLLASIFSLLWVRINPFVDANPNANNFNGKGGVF

[2] = biological target: T2, CESA6, N-terminal YN or YC fusion (BiFC) (Arabidopsis thaliana) (UniProt Q94JQ6)
T2 sequence: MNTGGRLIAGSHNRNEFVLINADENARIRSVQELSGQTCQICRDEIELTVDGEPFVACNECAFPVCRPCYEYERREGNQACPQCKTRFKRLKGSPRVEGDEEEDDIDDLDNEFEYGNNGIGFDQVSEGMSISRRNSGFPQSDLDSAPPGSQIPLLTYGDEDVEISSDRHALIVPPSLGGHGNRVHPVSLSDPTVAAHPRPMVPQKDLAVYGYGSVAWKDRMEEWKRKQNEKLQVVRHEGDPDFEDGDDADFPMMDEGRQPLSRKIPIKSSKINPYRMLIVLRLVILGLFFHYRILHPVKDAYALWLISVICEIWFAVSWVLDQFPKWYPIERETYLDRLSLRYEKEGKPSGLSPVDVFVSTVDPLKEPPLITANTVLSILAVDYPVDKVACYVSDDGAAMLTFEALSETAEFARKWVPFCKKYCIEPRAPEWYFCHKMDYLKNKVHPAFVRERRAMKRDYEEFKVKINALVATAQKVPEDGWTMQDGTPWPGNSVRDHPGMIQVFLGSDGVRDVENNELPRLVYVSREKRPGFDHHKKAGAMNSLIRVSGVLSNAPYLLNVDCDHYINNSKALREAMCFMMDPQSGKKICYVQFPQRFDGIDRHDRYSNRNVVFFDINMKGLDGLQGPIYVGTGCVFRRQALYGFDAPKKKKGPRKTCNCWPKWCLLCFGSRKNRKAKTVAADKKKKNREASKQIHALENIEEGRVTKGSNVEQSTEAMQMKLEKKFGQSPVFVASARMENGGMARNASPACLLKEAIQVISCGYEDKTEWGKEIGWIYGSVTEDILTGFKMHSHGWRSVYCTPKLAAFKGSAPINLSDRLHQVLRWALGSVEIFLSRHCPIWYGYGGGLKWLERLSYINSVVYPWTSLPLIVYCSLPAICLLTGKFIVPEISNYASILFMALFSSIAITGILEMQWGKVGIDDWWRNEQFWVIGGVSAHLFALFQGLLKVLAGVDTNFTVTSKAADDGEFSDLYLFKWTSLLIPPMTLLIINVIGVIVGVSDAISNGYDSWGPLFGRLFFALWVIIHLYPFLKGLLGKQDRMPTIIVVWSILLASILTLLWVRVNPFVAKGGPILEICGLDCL

[3] = biological target: T3, CESA3, N-terminal YN or YC fusion (BiFC) (Arabidopsis thaliana) (UniProt Q941L0)
T3 sequence: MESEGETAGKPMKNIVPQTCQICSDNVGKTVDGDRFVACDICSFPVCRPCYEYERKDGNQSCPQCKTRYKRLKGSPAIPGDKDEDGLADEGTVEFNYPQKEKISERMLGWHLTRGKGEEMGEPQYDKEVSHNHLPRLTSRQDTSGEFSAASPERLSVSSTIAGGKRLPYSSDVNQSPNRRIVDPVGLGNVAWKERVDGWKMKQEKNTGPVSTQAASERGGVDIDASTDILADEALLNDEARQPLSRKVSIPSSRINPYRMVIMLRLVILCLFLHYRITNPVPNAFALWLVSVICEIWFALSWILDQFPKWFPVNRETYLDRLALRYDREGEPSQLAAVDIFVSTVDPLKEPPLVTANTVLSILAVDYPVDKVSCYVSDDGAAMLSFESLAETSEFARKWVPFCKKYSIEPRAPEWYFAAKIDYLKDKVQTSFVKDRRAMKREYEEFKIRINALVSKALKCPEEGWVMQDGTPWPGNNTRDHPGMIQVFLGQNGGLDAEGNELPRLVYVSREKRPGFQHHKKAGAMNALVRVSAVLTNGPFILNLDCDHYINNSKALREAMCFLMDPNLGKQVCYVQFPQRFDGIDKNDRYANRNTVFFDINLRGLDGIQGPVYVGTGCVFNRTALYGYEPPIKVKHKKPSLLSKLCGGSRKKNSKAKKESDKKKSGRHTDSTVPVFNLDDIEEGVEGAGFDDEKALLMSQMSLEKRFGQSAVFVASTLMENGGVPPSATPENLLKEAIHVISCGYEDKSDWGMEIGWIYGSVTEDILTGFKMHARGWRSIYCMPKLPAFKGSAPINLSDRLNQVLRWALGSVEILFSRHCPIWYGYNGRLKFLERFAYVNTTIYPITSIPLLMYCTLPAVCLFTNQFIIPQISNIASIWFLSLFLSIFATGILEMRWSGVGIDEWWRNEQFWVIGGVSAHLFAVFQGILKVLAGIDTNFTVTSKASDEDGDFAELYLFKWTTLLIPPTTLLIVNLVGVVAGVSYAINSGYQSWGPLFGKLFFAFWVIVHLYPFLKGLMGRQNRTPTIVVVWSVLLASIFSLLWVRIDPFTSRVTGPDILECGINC

- binding [1]: binds
B1: CESA1, N-terminal YN or YC fusion (BiFC) (protein, UniProt O48946 1-1081)
chain: T1 sequence

- binding [2]: binds
- binding [3]: binds
- binding [1]: binds
B2: TIP1, N-terminal YN or YC fusion (BiFC) (enzyme, UniProt Q52T38 1-620)
chain: MSSEIEVVEEIQSNPKENGESSSKGIEEESLKNDVYTAAAYGDLEKLHRLVECEGSSVSEPDALGYYALQWSALNNRVAVAQYLIEHGGDVNATDHTGQTALHWSAVRGAIQVAELLLQEGARVDATDMYGYQATHVAAQYGQTAFLCHVVSKWNADPDVPDNDGRSPLHWAAYKGFADSIRLLLFLDAYRGRQDKEGCTPLHWAAIRGNLEACTVLVQAGKKEDLMITDKTGLTPAQLAAEKNHRQVSFFLGNARSLLEKRCDGSSPLGRLSKLGLAPVLWIMILLLLLVYTNSVVLASNLPKLTTGIGALAWLGFILATAGLFLFYRCSRKDPGYIRMNIHDPQTMKDDEPLLKIELNNPALLAGNWTQLCATCKIIRPLRAKHCSTCDRCVEQFDHHCPWVSNCVGKKNKWEFFLFLLLEVLAMLITGGVTLARVLSDPSAPSSFGAWMSHVASNHVGALSFLLVEFCLFFSVAVLTVIQASQISRNITTNEMANALRYSYLRGPGGRFRNPYDLGCRRNCSDFLVKGYNEDIECHEEDATQRPEGISMMQMQRNPNLQNGNGHVAIDVNPTHNSQSAHVHSANCSHSHNSKSKSDNVPLGLGLGLSRNPTRPVVSP
